# Test results: PMC12504520
# Protein sequences, listed by entry. Tags and fused reporters are not part of them. Lines headed by an entry give the natural chain unless they say otherwise; changes in a name come on top.
# UniProt Q86U44: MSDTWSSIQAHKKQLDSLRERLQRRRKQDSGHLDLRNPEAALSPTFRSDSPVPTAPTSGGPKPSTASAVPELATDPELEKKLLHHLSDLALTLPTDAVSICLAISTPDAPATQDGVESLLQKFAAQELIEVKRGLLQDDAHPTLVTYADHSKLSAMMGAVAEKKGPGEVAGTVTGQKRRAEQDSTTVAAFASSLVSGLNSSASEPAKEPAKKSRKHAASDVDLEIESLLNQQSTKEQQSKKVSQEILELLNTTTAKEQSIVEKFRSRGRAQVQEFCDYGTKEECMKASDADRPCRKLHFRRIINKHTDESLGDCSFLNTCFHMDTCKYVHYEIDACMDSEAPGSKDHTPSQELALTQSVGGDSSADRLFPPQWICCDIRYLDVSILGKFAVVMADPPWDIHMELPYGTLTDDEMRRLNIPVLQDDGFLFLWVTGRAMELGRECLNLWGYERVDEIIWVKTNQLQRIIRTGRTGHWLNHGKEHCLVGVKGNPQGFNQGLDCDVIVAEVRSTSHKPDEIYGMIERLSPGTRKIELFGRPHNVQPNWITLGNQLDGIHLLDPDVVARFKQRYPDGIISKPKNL
# UniProt Q8C3P7: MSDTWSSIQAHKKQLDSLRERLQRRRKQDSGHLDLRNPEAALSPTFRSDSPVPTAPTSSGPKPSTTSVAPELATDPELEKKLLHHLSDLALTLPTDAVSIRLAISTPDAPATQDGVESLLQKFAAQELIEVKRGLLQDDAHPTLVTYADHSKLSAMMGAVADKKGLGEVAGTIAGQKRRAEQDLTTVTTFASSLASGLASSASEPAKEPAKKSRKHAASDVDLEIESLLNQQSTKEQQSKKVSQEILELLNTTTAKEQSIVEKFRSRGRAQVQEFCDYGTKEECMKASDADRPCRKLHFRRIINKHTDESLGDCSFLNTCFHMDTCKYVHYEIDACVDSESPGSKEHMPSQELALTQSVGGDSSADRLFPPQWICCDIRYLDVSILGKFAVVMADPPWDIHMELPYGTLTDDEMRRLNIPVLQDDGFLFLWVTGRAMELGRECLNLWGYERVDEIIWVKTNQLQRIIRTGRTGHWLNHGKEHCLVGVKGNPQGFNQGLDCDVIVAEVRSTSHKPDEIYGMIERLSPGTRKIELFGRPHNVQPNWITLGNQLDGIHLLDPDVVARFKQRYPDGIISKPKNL
# Results are given in words; binding and its absence hold for the method and conditions named. In cells and extracts the contact can be indirect. Some binding calls cover weakened binding; strength is not graded here. For some assays here: Where a sequence is shown, tags or fusion partners need not be part of it.
# B1: HA-ADAP (adhesion and degranulation-protein adapter protein), full length (protein, UniProt O15117 1-783)
# chain: MAKYNTGGNPTEDVSVNSRPFRVTGPNSSSGIQARKNLFNNQGNASPPAGPSNVPKFGSPKPPVAVKPSSEEKPDKEPKPPFLKPTGAGQRFGTPASLTTRDPEAKVGFLKPVGPKPINLPKEDSKPTFPWPPGNKPSLHSVNQDHDLKPLGPKSGPTPPTSENEQKQAFPKLTGVKGKFMSASQDLEPKPLFPKPAFGQKPPLSTENSHEDESPMKNVSSSKGSPAPLGVRSKSGPLKPAREDSENKDHAGEISSLPFPGVVLKPAASRGGPGLSKNGEEKKEDRKIDAAKNTFQSKINQEELASGTPPARFPKAPSKLTVGGPWGQSQEKEKGDKNSATPKQKPLPPLFTLGPPPPKPNRPPNVDLTKFHKTSSGNSTSKGQTSYSTTSLPPPPPSHPASQPPLPASHPSQPPVPSLPPRNIKPPFDLKSPVNEDNQDGVTHSDGAGNLDEEQDSEGETYEDIEASKEREKKREKEEKKRLELEKKEQKEKEKKEQEIKKKFKLTGPIQVIHLAKACCDVKGGKNELSFKQGEQIEIIRITDNPEGKWLGRTARGSYGYIKTTAVEIDYDSLKLKKDSLGAPSRPIEDDQEVYDDVAEQDDISSHSQSGSGGIFPPPPDDDIYDGIEEEDADDGFPAPPKQLDMGDEVYDDVDTSDFPVSSAEMSQGTNVGKAKTEEKDLKKLKKQEKEEKDFRKKFKYDGEIRVLYSTKVTTSITSKKWGTRDLQVKPGESLEVIQTTDDTKVLCRNEEGKYGYVLRSYLADNDGEIYDDIADGCIYDND
# B2: FLAG-METTL14 (protein, UniProt Q9HCE5 1-456)
# chain: MDSRLQEIRERQKLRRQLLAQQLGAESADSIGAVLNSKDEQREIAETRETCRASYDTSAPNAKRKYLDEGETDEDKMEEYKDELEMQQDEENLPYEEEIYKDSSTFLKGTQSLNPHNDYCQHFVDTGHRPQNFIRDVGLADRFEEYPKLRELIRLKDELIAKSNTPPMYLQADIEAFDIRELTPKFDVILLEPPLEEYYRETGITANEKCWTWDDIMKLEIDEIAAPRSFIFLWCGSGEGLDLGRVCLRKWGYRRCEDICWIKTNKNNPGKTKTLDPKAVFQRTKEHCLMGIKGTVKRSTDGDFIHANVDIDLIITEEPEIGNIEKPVEIFHIIEHFCLGRRRLHLFGRDSTIRPGWLTVGPTLTNSNYNAETYASYFSAPNSYLTGCTEEIERLRPKSPPPKSKSDRGGGAPRGGGRGGTSAGRGRERNRSNFRGERGGFRGGRGGAHRGGFPPR
# Columns and labels:
# [1] = biological target: T1, endogenous ADAP of iBMMs (mouse (endogenous in iBMMs)) (UniProt O35601); experiment: co-IP; whole-cell lysates of WT iBMMs, untreated or LPS (1 μg/ml, 12 h); immunoprecipitation with anti-ADAP or control IgG, immunoblot with METTL3 antibody; endogenous proteins
# T1 sequence: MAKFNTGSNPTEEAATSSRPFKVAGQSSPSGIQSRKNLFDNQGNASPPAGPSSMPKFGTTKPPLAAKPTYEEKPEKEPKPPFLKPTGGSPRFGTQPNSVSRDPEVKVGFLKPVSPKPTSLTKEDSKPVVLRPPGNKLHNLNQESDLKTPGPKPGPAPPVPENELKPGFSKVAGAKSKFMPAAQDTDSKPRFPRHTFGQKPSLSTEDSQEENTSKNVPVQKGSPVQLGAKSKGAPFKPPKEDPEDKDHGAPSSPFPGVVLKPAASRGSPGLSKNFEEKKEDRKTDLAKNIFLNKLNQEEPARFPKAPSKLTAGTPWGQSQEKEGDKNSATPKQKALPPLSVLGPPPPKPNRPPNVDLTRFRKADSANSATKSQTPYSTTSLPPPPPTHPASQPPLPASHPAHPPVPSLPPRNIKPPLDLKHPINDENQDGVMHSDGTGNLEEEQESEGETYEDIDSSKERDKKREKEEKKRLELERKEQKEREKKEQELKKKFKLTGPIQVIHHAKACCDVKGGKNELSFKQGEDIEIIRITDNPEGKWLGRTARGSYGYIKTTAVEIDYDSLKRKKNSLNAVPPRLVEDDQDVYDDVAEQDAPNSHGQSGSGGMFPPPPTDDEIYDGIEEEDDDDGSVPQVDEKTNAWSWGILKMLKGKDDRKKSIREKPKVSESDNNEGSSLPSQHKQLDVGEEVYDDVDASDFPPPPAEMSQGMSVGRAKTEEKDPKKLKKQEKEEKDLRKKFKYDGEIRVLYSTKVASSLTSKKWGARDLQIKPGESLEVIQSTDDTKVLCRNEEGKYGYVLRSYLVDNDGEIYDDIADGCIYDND
# [2] = biological target: T2, HA-ADAP (adhesion and degranulation-protein adapter protein), full length (UniProt O15117); experiment: co-IP; HEK 293T cells co-transfected (36-40 h); lysates (1% Triton X-100, 20 mM Tris-HCl pH 8.3, 150 mM NaCl) immunoprecipitated with anti-HA antibody and Protein A/G agarose at 4 °C, immunoblot with anti-FLAG, anti-MYC, anti-HA
# T2 sequence: B1 chain
# [3] = biological target: FLAG-METTL3 (methyltransferase-like 3), full length (UniProt Q86U44); experiment: co-IP; HEK 293T cells co-transfected with FLAG-METTL3 and HA-ADAP for 36 h; lysates immunoprecipitated with anti-FLAG antibody, immunoblot
molecule,measurement,setting,value
endogenous METTL3 of iBMMs (from UniProt Q8C3P7 1-580) (enzyme),binding,[1],binds
"FLAG-METTL3 (methyltransferase-like 3), full length (from UniProt Q86U44 1-580) (enzyme)",binding,[2],binds
"truncated FLAG-METTL3, N-terminal region (residues 1-389) (from UniProt Q86U44 1-389) (domain or fragment)",binding,[2],binds
B1,binding,[3],binds
B2,binding,[2],no binding
